Assay results from the supplement of paper PMC4166925.
± gives the standard deviation of the averaged measurements. In all, about 33,000 sequences were measured (“E-score (dimensionless, -0.5 to 0.5)”: median about -0.046, highest 2% from about 0.36 on). This is one part of the list.

These sequences were tested on T1, SpTbr T-box DNA-binding domain (GST fusion) (assay: PBM E-score of 8-mer (E-score (dimensionless, -0.5 to 0.5)); Tbr is Tbrain of the sea star Patiria miniata (Pm) or the sea urchin Strongylocentrotus purpuratus (Sp); higher = stronger binding preference; most listed sequences are background and not binding sites). Details: the construct has about 5 more residues each side.
T1 sequence: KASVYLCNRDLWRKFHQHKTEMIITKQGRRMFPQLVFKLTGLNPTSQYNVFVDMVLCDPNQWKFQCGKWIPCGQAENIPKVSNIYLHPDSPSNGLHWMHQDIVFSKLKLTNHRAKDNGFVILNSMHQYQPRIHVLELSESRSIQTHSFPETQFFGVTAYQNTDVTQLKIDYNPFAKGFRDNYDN
How it was run: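 Expression of GST-fused Tbr T-box DNA-binding domains, each holding the full T-box plus roughly five flanking residues, was carried out in BL21 E. coli at 20 °C, with purification by glutathione affinity chromatography. Universal Agilent arrays made double-stranded by primer extension were incubated with the protein at 200 nM in PBS (pH 7.5), then scanned and quantified. All ungapped 8-mers were scored from probe intensities, and each received an enrichment E-score from the Universal PBM Analysis Suite, averaged over duplicate arrays.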

**Q.** With CATCACGG as the sequence, how does the “PBM E-score of 8-mer” value read?
**A.** 0.152 ± 0.022

**Q.** For GGATCTAC, which “PBM E-score of 8-mer” value is on record?
**A.** -0.184 ± 0.047

**Q.** How did the “PBM E-score of 8-mer” value turn out when ATACAAGA was run?
**A.** -0.129 ± 0.086

**Q.** How did the “PBM E-score of 8-mer” value turn out when AACTGACC was run?
**A.** -0.171 ± 0.019

**Q.** Which “PBM E-score of 8-mer” value does the source give for CGATGTAA here?
**A.** -0.0669 ± 0.0028

**Q.** GATCTCAC was tested. Which “PBM E-score of 8-mer” value did it give?
**A.** 0.371 ± 0.02

**Q.** With TCTCGTCA as the sequence, how does the “PBM E-score of 8-mer” value read?
**A.** 0.255 ± 0.011

**Q.** Which “PBM E-score of 8-mer” value does the source give for ATCTATGC here?
**A.** -0.197 ± 0.03

**Q.** For CCGACTAA, which “PBM E-score of 8-mer” value is on record?
**A.** -0.171 ± 0.011

**Q.** With AAGATCAA as the sequence, how does the “PBM E-score of 8-mer” value read?
**A.** -0.308 ± 0.008

**Q.** Which “PBM E-score of 8-mer” value does the source give for GACACTAA here?
**A.** 0.281 ± 0.021

**Q.** How did the “PBM E-score of 8-mer” value turn out when AATAGCCA was run?
**A.** -0.144 ± 0.11

**Q.** Which “PBM E-score of 8-mer” value does the source give for GTTGCAAA here?
**A.** 0.174 ± 0.0024

**Q.** AATTAATC was tested. Which “PBM E-score of 8-mer” value did it give?
**A.** -0.273 ± 0.014

**Q.** AGGGTCTC was tested. Which “PBM E-score of 8-mer” value did it give?
**A.** -0.14 ± 0.065

**Q.** With CTGCATGC as the sequence, how does the “PBM E-score of 8-mer” value read?
**A.** -0.147 ± 0.088

**Q.** With CTCCGCGC as the sequence, how does the “PBM E-score of 8-mer” value read?
**A.** -0.0659 ± 0.051

**Q.** With AGTGCCTC as the sequence, how does the “PBM E-score of 8-mer” value read?
**A.** -0.183 ± 0.1

**Q.** How did the “PBM E-score of 8-mer” value turn out when CGCGATAG was run?
**A.** 0.197 ± 0.028

**Q.** AAACGCAC was tested. Which “PBM E-score of 8-mer” value did it give?
**A.** 0.119 ± 0.063

**Q.** How did the “PBM E-score of 8-mer” value turn out when GAGAACTC was run?
**A.** 0.0875 ± 0.11

**Q.** Which “PBM E-score of 8-mer” value does the source give for AACAGCCC here?
**A.** 0.0217 ± 0.058

**Q.** For ATCGTACG, which “PBM E-score of 8-mer” value is on record?
**A.** -0.269 ± 0.041

**Q.** Which “PBM E-score of 8-mer” value does the source give for CCCAGGTA here?
**A.** -0.101 ± 0.0075

**Q.** CCCCTCGA was tested. Which “PBM E-score of 8-mer” value did it give?
**A.** 0.14 ± 0.0029

**Q.** CAATGGGC was tested. Which “PBM E-score of 8-mer” value did it give?
**A.** -0.128 ± 0.014

**Q.** With GCTTATAC as the sequence, how does the “PBM E-score of 8-mer” value read?
**A.** -0.306 ± 0.1

**Q.** AGAGAGTA was tested. Which “PBM E-score of 8-mer” value did it give?
**A.** -0.124 ± 0.04

**Q.** How did the “PBM E-score of 8-mer” value turn out when TCTGGAAA was run?
**A.** -0.194 ± 0.015

**Q.** For GAGGCAAC, which “PBM E-score of 8-mer” value is on record?
**A.** 0.0457 ± 0.042

**Q.** With AAGGGATG as the sequence, how does the “PBM E-score of 8-mer” value read?
**A.** -0.266 ± 0.02

**Q.** With CGCTGCTA as the sequence, how does the “PBM E-score of 8-mer” value read?
**A.** -0.233 ± 0.012

**Q.** With TCCACCGA as the sequence, how does the “PBM E-score of 8-mer” value read?
**A.** -0.0787 ± 0.04

**Q.** How did the “PBM E-score of 8-mer” value turn out when ACGTCCAA was run?
**A.** -0.122 ± 0.023

**Q.** With GTTGGTAA as the sequence, how does the “PBM E-score of 8-mer” value read?
**A.** 0.00396 ± 0.04

**Q.** How did the “PBM E-score of 8-mer” value turn out when CGTGGAGA was run?
**A.** -0.0921 ± 0.096

**Q.** With ACGATTCG as the sequence, how does the “PBM E-score of 8-mer” value read?
**A.** 0.0807 ± 0.028

**Q.** Which “PBM E-score of 8-mer” value does the source give for GGCTTAAC here?
**A.** 0.115 ± 0.015

**Q.** With ATGAGCGG as the sequence, how does the “PBM E-score of 8-mer” value read?
**A.** -0.0884 ± 0.004

**Q.** TACTGCTA was tested. Which “PBM E-score of 8-mer” value did it give?
**A.** -0.184 ± 0.057

**Q.** How did the “PBM E-score of 8-mer” value turn out when ATCTGCTC was run?
**A.** -0.203 ± 0.026

**Q.** For AAACACAT, which “PBM E-score of 8-mer” value is on record?
**A.** 0.264 ± 0.049

**Q.** AGGGCCCT was tested. Which “PBM E-score of 8-mer” value did it give?
**A.** -0.275 ± 0.06

**Q.** Which “PBM E-score of 8-mer” value does the source give for AAATGACT here?
**A.** -0.113 ± 0.069

**Q.** For GCAGGTTA, which “PBM E-score of 8-mer” value is on record?
**A.** -0.0483 ± 0.097

**Q.** For ATCAGACG, which “PBM E-score of 8-mer” value is on record?
**A.** -0.212 ± 0.051

**Q.** For ACTGCGGG, which “PBM E-score of 8-mer” value is on record?
**A.** -0.0368 ± 0.06

**Q.** Which “PBM E-score of 8-mer” value does the source give for TGGAGCAA here?
**A.** -0.114 ± 0.062

**Q.** AGAATAGC was tested. Which “PBM E-score of 8-mer” value did it give?
**A.** 0.0706 ± 0.034

**Q.** Which “PBM E-score of 8-mer” value does the source give for ATCCTCGG here?
**A.** -0.27 ± 0.018

**Q.** Which “PBM E-score of 8-mer” value does the source give for AGTCGTAC here?
**A.** -0.152 ± 0.0051

**Q.** For CCCAATAA, which “PBM E-score of 8-mer” value is on record?
**A.** -0.179 ± 0.0015

**Q.** For ACGAGGGG, which “PBM E-score of 8-mer” value is on record?
**A.** -0.205 ± 0.016

**Q.** For GCGTTGAC, which “PBM E-score of 8-mer” value is on record?
**A.** 0.364 ± 0.0037

**Q.** Which “PBM E-score of 8-mer” value does the source give for AAAGTCAT here?
**A.** -0.158 ± 0.024

**Q.** For AGCCATTG, which “PBM E-score of 8-mer” value is on record?
**A.** -0.112 ± 0.026

**Q.** AGATCCAC was tested. Which “PBM E-score of 8-mer” value did it give?
**A.** -0.0421 ± 0.029

**Q.** With AATGTGAC as the sequence, how does the “PBM E-score of 8-mer” value read?
**A.** 0.348 ± 0.028

**Q.** With GAGCGGAA as the sequence, how does the “PBM E-score of 8-mer” value read?
**A.** -0.0528 ± 0.046

**Q.** For CACGAGGG, which “PBM E-score of 8-mer” value is on record?
**A.** 0.0961 ± 0.0066

**Q.** For AGGACTAA, which “PBM E-score of 8-mer” value is on record?
**A.** -0.109 ± 0.055

**Q.** With ACAGGTAG as the sequence, how does the “PBM E-score of 8-mer” value read?
**A.** 0.124 ± 0.023

**Q.** How did the “PBM E-score of 8-mer” value turn out when AGCAAGGA was run?
**A.** 0.0257 ± 0.063

**Q.** For AAACGCGC, which “PBM E-score of 8-mer” value is on record?
**A.** 0.16 ± 0.0042

**Q.** Which “PBM E-score of 8-mer” value does the source give for CGTGTGCA here?
**A.** 0.183 ± 0.065

**Q.** Which “PBM E-score of 8-mer” value does the source give for CACCCGTC here?
**A.** 0.277 ± 0.025

**Q.** Which “PBM E-score of 8-mer” value does the source give for CAAGTGGG here?
**A.** 0.265 ± 0.022

**Q.** How did the “PBM E-score of 8-mer” value turn out when CAACGGCC was run?
**A.** 0.0882 ± 0.062

**Q.** AAGTGTAA was tested. Which “PBM E-score of 8-mer” value did it give?
**A.** 0.399 ± 0.018

**Q.** How did the “PBM E-score of 8-mer” value turn out when ACTCACTG was run?
**A.** 0.0349 ± 0.093

**Q.** How did the “PBM E-score of 8-mer” value turn out when AACAACAA was run?
**A.** 0.102 ± 0.0091

**Q.** With CGCCCAAC as the sequence, how does the “PBM E-score of 8-mer” value read?
**A.** -0.0222 ± 0.018

**Q.** With CAATGCGA as the sequence, how does the “PBM E-score of 8-mer” value read?
**A.** 0.129 ± 0.015

**Q.** ACCGCTGG was tested. Which “PBM E-score of 8-mer” value did it give?
**A.** 0.0499 ± 0.012

**Q.** Which “PBM E-score of 8-mer” value does the source give for AGGGACAG here?
**A.** -0.105 ± 0.011

**Q.** With AGAGTAAT as the sequence, how does the “PBM E-score of 8-mer” value read?
**A.** -0.127 ± 0.084

**Q.** For TCATTGCA, which “PBM E-score of 8-mer” value is on record?
**A.** -0.0363 ± 0.0038

**Q.** For TCTCAACA, which “PBM E-score of 8-mer” value is on record?
**A.** 0.126 ± 0.045

**Q.** Which “PBM E-score of 8-mer” value does the source give for GAACTCGC here?
**A.** 0.218 ± 0.032

**Q.** With CCCGCGCC as the sequence, how does the “PBM E-score of 8-mer” value read?
**A.** 0.0782 ± 0.054

**Q.** With AGAACGTA as the sequence, how does the “PBM E-score of 8-mer” value read?
**A.** -0.103 ± 0.0039

**Q.** How did the “PBM E-score of 8-mer” value turn out when AATTAGCG was run?
**A.** 0.222 ± 0.054

**Q.** ACTTCCAG was tested. Which “PBM E-score of 8-mer” value did it give?
**A.** 0.0352 ± 0.018

**Q.** For AGTAGCCG, which “PBM E-score of 8-mer” value is on record?
**A.** -0.142 ± 0.036

**Q.** How did the “PBM E-score of 8-mer” value turn out when GAAGAGGA was run?
**A.** -0.167 ± 0.0076

**Q.** ACTCTTCT was tested. Which “PBM E-score of 8-mer” value did it give?
**A.** -0.224 ± 0.0037

**Q.** Which “PBM E-score of 8-mer” value does the source give for AGGTCCGA here?
**A.** -0.19 ± 0.039

**Q.** With CTAGCTCC as the sequence, how does the “PBM E-score of 8-mer” value read?
**A.** -0.105 ± 0.1

**Q.** For ATTCTAAG, which “PBM E-score of 8-mer” value is on record?
**A.** -0.0865 ± 0.025

**Q.** With AATGTCTC as the sequence, how does the “PBM E-score of 8-mer” value read?
**A.** -0.195 ± 0.03

**Q.** For AACAATGA, which “PBM E-score of 8-mer” value is on record?
**A.** 0.0839 ± 0.096

**Q.** CCCTCCCC was tested. Which “PBM E-score of 8-mer” value did it give?
**A.** -0.0206 ± 0.028

**Q.** How did the “PBM E-score of 8-mer” value turn out when CCACCCCG was run?
**A.** 0.231 ± 0.055

**Q.** For CCTCAAAC, which “PBM E-score of 8-mer” value is on record?
**A.** -0.0544 ± 0.056
